{
  "source": "patent US10858425B2",
  "about": "“Pan-ELR+ CXC chemokine antibodies” (Eli Lilly and Company, priority 2013, dated 2020)",
  "key": {"[1]": {"molecular_target": "T1, human CXCL1 (Gro alpha) (Homo sapiens, UniProt P09341)", "T1 sequence (P09341 35-107)": "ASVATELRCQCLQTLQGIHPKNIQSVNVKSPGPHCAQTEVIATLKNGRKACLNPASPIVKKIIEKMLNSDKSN", "assay": "Biacore surface plasmon resonance binding to human CXCL1", "details": "25° C.", "protocol": "Biacore 2000 instrument and Biacore 2000 Evaluation Software Version 4.1 are used for surface plasmon resonance analysis. A […] chip is prepared using manufacturer's EDC/NHS amine coupling method. Briefly, the surfaces of all four flow cells are activated by injecting a 1:1 mixture of EDC/NHS for 7 minutes at 10 μL/min. Protein A is diluted to 100 μg/mL in 10 mM acetate, pH 4.5 buffer, and immobilized to achieve approximately 10,000 RU onto all 4 flow cells by 7-minute injection at a flow rate of 10 μL/minute. Unreacted sites are blocked with a 7-minute injection of ethanolamine at 10 μL/minute. Two injections of glycine (pH 1.5) for 30 seconds at 10 μL/minute are used to remove any non-covalently associated protein. Running buffer is HBS-EP+.\nAntibody 1 or Antibody 2 is diluted to 2 μg/mL in running buffer, and approximately 400-600 RU is captured in flow cell (Fc). Ligands are diluted from 100 μg/mL to 50 nM in running buffer and then two-fold serially diluted in running buffer to 3.125 nM. Duplicate injections of each ligand concentration are injected at 100 μL/min for 150 seconds followed by a dissociation phase. […] The on-rate (kon) and off-rate (koff) for each ligand are evaluated using a “1:1 (mass transfer) Binding” binding model. The affinity […] is calculated from the binding kinetics according to the relationship: KD=koff/kon."}, "[2]": {"assay": "Acute DSS colitis model in mice, body weight", "type": "in vivo, C57BL/6 mice", "protocol": "Dextran sulfate sodium (DSS) is the most commonly used model of Ulcerative Colitis (UC). In this model, DSS is a chemical irritant that is added to drinking water to induce acute disease that resembles UC. The acute phase of DSS colitis is characterized by the recruitment of neutrophils to the mucosa and submucosa, and increased expression of ELR+ CXC chemokines. However, chronic exposure to DSS causes severe gut damage and significant weight loss, which is not suitable in a colitis model. To accommodate the acute nature of this model, Antibody 1 was used in a prophylactic manner to test its ability to inhibit the recruitment of neutrophils and the development of colitis.\nC57BL/6 mice, 8-10 wks old, weighing 18-22 g, are obtained. Blood is collected by cardiac puncture and analyzed to establish a baseline. To induce colitis, mice receive 2.5% DSS (MW=36,000-50,000) in the drinking water for 5 days (Days 1-5) followed by 6 days of no DSS water (reflecting acute inflammation). Control healthy mice receive water only (“no DSS” group). Mice receiving DSS are dosed by subcutaneous injection on Day 0, 2, 4, and 8 with human IgG4 control antibody (25 mg/kg) or Antibody 1 (25 mg/kg). Body weight is recorded daily. The number of mice used for each treatment is 9 (except 5 healthy mice are used in the healthy “no DSS” group.) The study is performed in quadruplicate."}},
  "data": [
    {"molecule": "Antibody 1: antibody with heavy chain SEQ ID NO: 1 and light chain SEQ ID NO: 3, expressed in NSO cells (antibody) heavy: QVQLVQSGAEVKKPGASVKVSCKASGYEFTSYWIHWVRQAPGQGLEWMGNISPNSGSANYNEKFKSRVTMTRDTSTSTVYMELSSLRSEDTAVYYCAREGPYSYYPSREYYGSDLWGQGTLVTVSSASTKGPSVFPLAPCSRSTSESTAALGCLVKDYFPEPVTVSWNSGALTSGVHTFPAVLQSSGLYSLSSVVTVPSSSLGTKTYTCNVDHKPSNTKVDKRV[human IgG4 Fc with S228P (EU numbers) not spelt out] light: EIVLTQSPATLSLSPGERATLSCRASQSISNNLHWYQQKPGQAPRLLIYYTSRSVSGIPARFSGSGSGTDFTLTISSLEPEDFAVYYCGQNNEWPEVFGGGTKVEIKRTVAAPSVFIFPPSDEQLKSGTASVVCLLNNFYPREAKVQWKVDNALQSGNSQESVTEQDSKDSTYSLSSTLTLSKADYEKHKVYACEVTHQGLSSPVTKSFNRGEC", "values": [
      {"measurement": "kon", "setting": "[1]", "result": "9.30 ± 0.45 (1/Ms) × 10^5"},
      {"measurement": "% of Initial Body Weight", "setting": "[2]; Day 1, 25 mg/kg subcutaneous", "result": 100.0, "unit": "%"},
      {"measurement": "% of Initial Body Weight", "setting": "[2]; Day 2, 25 mg/kg subcutaneous", "result": 102.9, "unit": "%"},
      {"measurement": "% of Initial Body Weight", "setting": "[2]; Day 3, 25 mg/kg subcutaneous", "result": 101.4, "unit": "%"},
      {"measurement": "% of Initial Body Weight", "setting": "[2]; Day 4, 25 mg/kg subcutaneous", "result": 100.9, "unit": "%"},
      {"measurement": "% of Initial Body Weight", "setting": "[2]; Day 5, 25 mg/kg subcutaneous", "result": 96.9, "unit": "%"},
      {"measurement": "% of Initial Body Weight", "setting": "[2]; Day 9, 25 mg/kg subcutaneous", "result": 93.5, "unit": "%"},
      {"measurement": "% of Initial Body Weight", "setting": "[2]; Day 10, 25 mg/kg subcutaneous", "result": 93.6, "unit": "%"},
      {"measurement": "% of Initial Body Weight", "setting": "[2]; Day 11, 25 mg/kg subcutaneous", "result": 97.0, "unit": "%"}
    ]}
  ]
}
